Screen size: about 50,000 compounds; about 800 (1.6%) showed an effect of 50% or more. Some of the results follow.

The target of the assay is Bcl-2-like protein 10 (Homo sapiens) (UniProt Q9HD36). Put plainly: Phenotype converters, Bcl-B/TR3 peptide binding displacement, primary biochemical FP (AID 1240).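 Further: 0% = Bcl-B with tracer peptide and DMSO and 100% = tracer peptide lacking Bcl-B.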 The conditions noted are these: GST-Bcl-B / FITC-TR3 peptide fluorescence polarization; stronger effect = higher value; compound at 3.75 mg/L.
Chain of UniProt Q9HD36 (Q9HD36 whole entry, looked up): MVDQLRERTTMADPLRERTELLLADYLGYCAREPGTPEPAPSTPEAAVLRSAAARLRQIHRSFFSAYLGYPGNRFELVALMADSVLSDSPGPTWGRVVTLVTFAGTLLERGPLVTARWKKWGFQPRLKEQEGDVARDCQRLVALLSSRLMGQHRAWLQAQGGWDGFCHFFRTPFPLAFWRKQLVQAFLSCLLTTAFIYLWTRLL
Consider `CC(C)c1ccc(C2/C(=C(\O)c3ccccc3)C(=O)C(=O)N2CCCC(=O)O)cc1` (centres undefined), for which the displacement was determined as 4.9%. As for `Cc1onc(-c2ccccc2)c1C(=O)Nc1sc(C)c(C)c1C(N)=O`, the figure is 3.8%; as for `O=C(Nc1ccc(Cl)c(Cl)c1)c1cccc2ccccc12`, 10.2%; as for `N#Cc1c(-c2ccc(Cl)cc2)nc2n(c1=O)CCS2`, 0.4%.

As to `O=C(Nc1ccccc1-c1nc2ccccc2[nH]1)c1ccc([N+](=O)[O-])cc1`, the displacement is 7%. Turning to `Cc1cc(C)c(C(N)=O)c(Nc2cccc(Cl)c2)n1`, the displacement is -3.9%. As for `Cc1ccc(C)c(NC(=O)c2ccccc2F)c1`, the figure is 5.1%; as for `COCCCNC(=O)c1c(Cl)cccc1Cl`, 9%.

As for `O=C(/C=C/c1cccc([N+](=O)[O-])c1)N1CCN(Cc2ccccc2)CC1`, the displacement is 0%.

With `O=C1NC(=S)N(c2ccc(Br)cc2)C(=O)/C1=C\c1ccc(-c2ccc([N+](=O)[O-])cc2)o1`, the displacement is 16.2%. Take `O=C(/C=C/c1cccc([N+](=O)[O-])c1)Nc1ccc(-c2nc3ccccc3o2)cc1`: the displacement was -5.2%. As to `Cc1ccc(S(=O)(=O)Nc2cc(Sc3nc(C)cc(C)n3)c(O)c3ccccc23)cc1`, the displacement was -25.1%. As for `CCc1nnc(NC(=O)CN2C(=O)/C(=C/c3ccc(OC)c(OC)c3)SC2=S)s1`, the figure is 12.6%. The same measure for `COc1cc(OC)cc(C(=O)N2CCN(Cc3ccccc3C)CC2)c1`: 12.6%; for `O=C(NCc1ccco1)c1cnn2c1NC(c1ccccc1)CC2C(F)(F)F` (centres undefined): 5.6%. On to `O=[N+]([O-])c1cc(C(F)(F)F)ccc1N/N=C/c1ccc(F)cc1`, for which the displacement was determined as 6.3%.

Regarding `Clc1ccccc1-n1nnnc1C(Cl)(Cl)c1nnnn1-c1ccccc1Cl`, the displacement worked out at 6.9%. The same measure for `CCSc1nc2ccccc2n1CCC(=O)O`: 16.5%; for `COc1c(C(=O)/C=C/c2ccccc2)c(O)c(OC)c2occc12`: -5.1%. As for `COc1ccc(-c2nnc(NC(=O)Nc3ccc(Cl)cc3)s2)cc1`, the figure is -1.2%. The same measure for `CCCC(=O)NS(=O)(=O)c1ccc(NS(=O)(=O)c2ccc(C)cc2)cc1`: 11.6%; for `Nc1nc2ccccc2n1CCOc1ccc(F)cc1`: -3.9%.

For the molecule `O=C(COc1ccc2ccccc2c1)Nn1cnnc1`, the displacement was -3.1%. As for `O=C(Nc1ccc(-c2nc3ccccc3s2)c(O)c1)c1ccncc1`, the figure is 11.4%. The same measure for `CSc1nnc2n(C)c(=O)c3c4c(sc3n12)COC(C)(C)C4`: -1.6%. With `O=C(NCc1cccnc1)/C(=C/c1ccc(-c2ccc(Br)cc2)o1)NC(=O)c1ccccc1`, the displacement is 12.2%. The same measure for `CCCOC(=O)C(C)Sc1n[nH]c(=O)[nH]c1=O` (centres undefined): -7%. As for `O=C(O)c1cccc(Nc2nc(-c3ccc(Cl)cc3)cs2)c1`, the figure is -34.4%. In the case of `O=C(c1ccc(F)cc1)N(C1CCCCC1)C1CCCCC1`, the displacement was determined as 12.4%. For `COC(=O)c1ccc(/C=N/Nc2nc(-c3ccc(C)cc3)cs2)cc1`, the displacement came to 4.8%.

On to `COc1ccccc1C(=O)N1CCN(Cc2ccccc2[N+](=O)[O-])CC1`, for which the displacement stood at 1.5%. For `O=C(/C=C/c1cccc([N+](=O)[O-])c1)Nc1ccc2oc(-c3ccccc3F)nc2c1`, the displacement worked out at 7.6%. The same measure for `O=C(Oc1cccc(C(=S)N2CCOCC2)c1)c1ccc([N+](=O)[O-])cc1`: 12.1%; for `COc1ccc(Br)cc1C(=O)Nc1cccc(C(F)(F)F)c1`: 9.4%. Regarding `Brc1ccc(-c2nc(Cc3ccccc3)no2)cc1`, the displacement was 0.2%. In the case of `O=C(N/N=C/c1ccc(O)c(O)c1)Nc1ccccc1`, the displacement is -14%. The same measure for `COCCCNC(=O)CN(c1ccc(OC)cc1OC)S(=O)(=O)c1ccc(C)cc1`: -0.4%. Take `CCOC(=O)c1ccccc1NC(=O)CN1C(=O)c2ccccc2C1=O`: the displacement came out at 3.5%. As for `CCOC(=O)/C(C#N)=C/N1CCOCC1`, the displacement was determined as 0.8%. As for `Cc1nnc(NC(=O)C(C)Oc2ccc(Cl)cc2Cl)s1` (centres undefined), the figure is -5.6%. Take `O=C(c1cccc(N2C(=O)C3C4C=CC(C4)C3C2=O)c1)c1cccc(N2C(=O)C3C4C=CC(C4)C3C2=O)c1` (centres undefined): the displacement was 1.4%. The same measure for `CCOc1ccc(/C=C2\C(=O)NC(=O)N(c3ccc(Cl)cc3)C2=O)cc1`: -7.2%. The same measure for `COc1ccc(C2CC(=O)C3=C(C2)Nc2ccccc2N(C(C)=O)C3c2ccc(OC)c(OC)c2)cc1` (centres undefined): -9.5%; for `CC1(C(=O)N/N=C/c2cccnc2)CC1(Br)Br` (centres undefined): 2.6%; for `CC(C)CC1CCCCC1OC(=O)CN1CCCCC1` (centres undefined): -23.6%. `CC(C)(C)c1ccc(/C=C2\NC(=S)N(c3ccccc3)C2=O)cc1`: the displacement is -31.7%. The same measure for `Cc1cc(C(=O)Nc2ccc(C(=O)O)cc2)c(C)o1`: 11.2%; for `Cc1ccc(N2C(=O)/C(=C/c3cccs3)SC2=S)cc1C`: 15.2%. Turning to `O=C(/C=C/c1ccc(Cl)cc1)NCCN1CCOCC1`, the displacement stood at 3%. In the case of `CCCc1nnc(NC(=O)c2cccc(OCC)c2)s1`, the displacement was 6.1%.

`Cc1cc(C)nc(SCC(=O)Nc2ccccc2F)n1`: the displacement was -6%. As for `Cc1ccc(NC(=O)CN(c2ccc(C(C)C)cc2)S(=O)(=O)c2ccccc2)c(C)c1`, the figure is 5.6%; as for `CC(C)c1ccc(-c2nnc(N)s2)cc1`, 6.6%; as for `Cc1cccc(NC(=O)c2ccc3ccccc3n2)c1`, 1.9%.

Consider `C=CCn1c2ccccc2c2nnc(SCC(=O)Nc3cc(C)on3)nc21`, for which the displacement is 10%. With `NC1=NC(=O)/C(=C\c2cc(Br)ccc2OCc2ccccc2F)S1`, the displacement came to 6.3%. As for `O=C(Nc1ccc(S(=O)(=O)N2CCOCC2)cc1)c1ccccc1Cl`, the figure is 2%; as for `CCOC(=O)C1=C(C)N=c2s/c(=C\c3cccc([N+](=O)[O-])c3)c(=O)n2C1c1ccc(C)cc1` (centres undefined), 16.1%; as for `Cc1cc(C)nc(SCC(=O)N2c3ccccc3-c3c(ssc3=S)C2(C)C)n1`, 10%. Take `COc1cccc2c1CC/C(=C\c1ccc(N(C)C)cc1)C2=O`: the displacement was found to be 11.7%. The same measure for `CCOC(=O)C1=C(C)NC(=O)NC1c1ccc(F)c(F)c1` (centres undefined): -2.1%; for `COc1ccc(S(=O)(=O)N(C)C2CCCCC2)cc1`: -6.7%; for `N/C(=N\OC(=O)c1cccc2ccccc12)c1cccc([N+](=O)[O-])c1`: -8.4%. As for `O=C(O)C(=O)/C=C(\O)c1ccc(F)cc1`, the figure is 12.6%; as for `Cc1nc(/N=C(/N)NC(=O)Cc2ccccc2)nc2ccccc12`, 48.4%. As for `COc1ccccc1NC(=O)C1=C(C)NC(SCC(N)=O)=C(C#N)C1c1ccco1` (centres undefined), the figure is 12.4%; as for `O=C(NCCOc1ccccc1)c1sc2ccccc2c1Cl`, -9.3%; as for `Cc1ccc(NCCC(=O)c2ccc(Br)cc2)cc1C`, 10.6%. On to `Cc1ccc(N2C(=O)c3ccc(C(=O)O)cc3C2=O)c(C)c1`, for which the displacement came out at 1.6%.

`O=[N+]([O-])c1ccc(S(=O)(=O)Nc2ccccc2Br)cc1`: the displacement turned out to be 0.7%. As for `COc1ccc(N2C(=O)Cn3c2nc2c3c(=O)n(C)c(=O)n2C)cc1`, the figure is 61.6%; as for `CCCN(CCC)C(=O)C(CC)c1ccccc1` (centres undefined), 8.5%; as for `O=C(Nc1cccc(O)c1)c1cccc(NC(=O)c2ccc(Cl)c(Cl)c2)c1`, -4.2%.

As for `COc1cccc(NC2=NC3(CCCCC3)N=C(N)N2)c1`, the displacement was -8.5%. The same measure for `COc1ccccc1C/C(N)=N/OC(=O)c1ccc(I)cc1`: 10.8%; for `O=C(NNS(=O)(=O)c1cccc([N+](=O)[O-])c1)c1ccccc1O`: 8%. The same measure for `Cc1ccccc1C(=O)NC(NC(=O)c1ccccc1C)c1ccc(Br)cc1`: -7.2%. The same measure for `CC(C)OC(=O)C1C(=O)CC(C)(O)C(C(=O)OC(C)C)C1c1ccc2c(c1)OCO2` (centres undefined): 6%. In the case of `O=C1S/C(=C/c2ccc(Cl)c(Cl)c2)C(=O)N1c1ccccc1`, the displacement was determined as 17.9%. The same measure for `O=C(O)CCCN1C(=O)/C(=C/c2ccccc2Cl)SC1=S`: 22.3%; for `COc1ccc(C)cc1NC(=O)CN(Cc1ccccc1)S(=O)(=O)c1ccc(OC)c(OC)c1`: -46.5%. As for `O=C(NN1C(=O)CSC1=S)c1ccccc1Br`, the figure is -16.8%; as for `CCOc1ccc(N(CC(=O)NCCCOC)S(=O)(=O)c2ccc(SC)cc2)cc1`, -10.9%. As for `COC(=O)c1ccc(COc2ccc3c(-c4ccccc4)cc(=O)oc3c2C)cc1`, the figure is -1.3%; as for `C[C@H](NC(=O)CCc1ccccc1)c1ccccc1`, 13.4%. For the molecule `O=C1OC(c2ccc(Cl)cc2)=C/C1=C\c1ccc2c(c1)OCO2`, the displacement was -19.4%.

With `CC(C)Oc1cc2oc(=O)cc(-c3ccccc3)c2cc1Cl`, the displacement worked out at 3.7%.

As to `COc1ccc(-n2c(=O)c3c4c(sc3n3c(SCc5ccccc5)nnc23)CCC4)cc1`, the displacement was -7%. The same measure for `O=C(O)c1cc(-c2ccc(/C=C/c3cc(C(F)(F)F)[nH]c(=O)n3)o2)ccc1Cl`: -14.2%. As for `CC(=O)N1c2ccccc2CC(N2CCCCC2)c2ccccc21` (centres undefined), the figure is 12.7%; as for `CCOC(=O)c1ccccc1NC(=O)c1ccc(N(C)S(=O)(=O)c2ccccc2)cc1`, -1.9%; as for `O=C(N/N=C/c1ccccc1Br)C(=O)N/N=C/c1ccccc1Br`, 1%.

As to `CCOC(=O)c1c(NC(=O)c2c(Cl)ccc(Cl)c2OC)sc2c1CCCC2`, the displacement was -1.7%. As for `CC1(C)Cc2c(sc3nc(SCC(N)=O)n(Cc4ccccc4)c(=O)c23)CO1`, the figure is -3.4%. As to `N#C/C(=C/c1ccc(C(=O)O)cc1)C(=O)Nc1cccc(Br)c1`, the displacement is -2.2%.

For the molecule `COc1cc2ccccc2cc1C(=O)Nc1ccc2c(c1)C(=O)N(C)C2=O`, the displacement turned out to be 8.1%. The same measure for `Cc1ccc(OCC(=O)N2CCN(c3ccccn3)CC2)c(C)c1`: -6.5%; for `COc1ccc(OC)c(S(=O)(=O)N2CCOCC2)c1`: 1.6%; for `C=CCN1C(=O)/C(=C/c2ccc(O)c(OC)c2)S/C1=N\c1nnc(CC)s1`: 0%.

Turning to `Cc1c(N(C(=O)c2cccc(Cl)c2)C(C)C)c(=O)n(-c2ccccc2)n1C`, the displacement came to 4.2%. As for `O=C(c1ccc(Cl)c(Cl)c1)N1CCN(c2ccc([N+](=O)[O-])c3cccnc23)CC1`, the figure is 12.6%; as for `COc1ccc(C(=O)N2CCN(S(C)(=O)=O)CC2)cc1`, 12.9%.

`COc1ccc(/C=C2/C=C(c3ccc(OC)c(OC)c3)OC2=O)cc1OC`: the displacement turned out to be 189%. The same measure for `Cc1ccc(C(=O)Nc2ccccc2C(=O)NCc2ccco2)cc1`: -7%; for `CC(C)c1ccc(NC(=O)C(=O)NCc2ccccn2)cc1`: -9.6%; for `Cc1ccc(C)c(S(=O)(=O)NCc2ccccn2)c1`: 5.2%.

For `O=C(COc1ccc(Cl)cc1Br)NNC(=O)c1ccccc1O`, the displacement came out at 3.2%. On to `Cc1ccccc1N1CCN(C(=S)c2ccccc2)CC1`, for which the displacement amounted to 13%. Consider `COC(=O)c1cc(NC(=O)c2ccc(Cl)c([N+](=O)[O-])c2)cc(C(=O)OC)c1`, for which the displacement came to 2.6%.
